Data reported in PMC11904967.
Results are given in words; binding and its absence hold for the method and conditions named. Binding seen in cells or lysates may run through a third protein. Some binding calls cover weakened binding; strength is not graded here. For some assays here: Sequences can lack the tags named with a protein. One block for each binder: values may come before it.

By UniProt entry, the sequences of proteins in these tests, tags left out.
UniProt O60260: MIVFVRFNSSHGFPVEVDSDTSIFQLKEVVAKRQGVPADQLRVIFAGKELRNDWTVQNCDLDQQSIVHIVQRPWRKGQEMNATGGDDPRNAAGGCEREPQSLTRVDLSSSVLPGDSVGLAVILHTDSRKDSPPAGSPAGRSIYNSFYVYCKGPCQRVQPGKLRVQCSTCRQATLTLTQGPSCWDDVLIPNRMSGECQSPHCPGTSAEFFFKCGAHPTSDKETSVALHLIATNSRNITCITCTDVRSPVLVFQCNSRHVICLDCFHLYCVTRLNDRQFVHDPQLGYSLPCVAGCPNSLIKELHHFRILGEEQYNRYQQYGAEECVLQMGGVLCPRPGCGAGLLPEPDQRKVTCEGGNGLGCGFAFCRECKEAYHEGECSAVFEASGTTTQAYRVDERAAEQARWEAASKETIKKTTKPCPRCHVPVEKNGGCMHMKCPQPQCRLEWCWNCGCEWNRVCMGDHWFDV
UniProt P14618: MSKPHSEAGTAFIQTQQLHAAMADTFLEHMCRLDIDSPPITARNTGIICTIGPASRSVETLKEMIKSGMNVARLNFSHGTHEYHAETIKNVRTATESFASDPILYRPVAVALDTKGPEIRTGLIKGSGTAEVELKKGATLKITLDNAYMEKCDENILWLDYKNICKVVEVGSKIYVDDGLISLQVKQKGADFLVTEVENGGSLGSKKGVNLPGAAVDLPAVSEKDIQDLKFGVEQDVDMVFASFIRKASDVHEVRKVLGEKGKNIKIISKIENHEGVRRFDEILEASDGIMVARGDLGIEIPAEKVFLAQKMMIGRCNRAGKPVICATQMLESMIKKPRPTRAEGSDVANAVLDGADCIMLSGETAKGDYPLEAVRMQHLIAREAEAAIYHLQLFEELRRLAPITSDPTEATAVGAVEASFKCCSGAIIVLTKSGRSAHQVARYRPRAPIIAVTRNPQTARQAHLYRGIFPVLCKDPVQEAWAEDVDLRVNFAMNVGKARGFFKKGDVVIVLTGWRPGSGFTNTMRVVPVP

Experiments:
[1] = molecular target: E3 ubiquitin‐protein ligase parkin (PRKN), endogenous in PANC‐1 cells (human (endogenous in PANC-1)) (UniProt O60260); assay: co-IP; PANC-1 cells, NP-40 lysis buffer with 1% PMSF, antibody overnight at 4 °C, magnetic beads 4 h at 4 °C, western blotting (Figure 5A top)
[2] = molecular target: E3 ubiquitin‐protein ligase parkin (PRKN), endogenous in PANC‐1 cells (human (endogenous in PANC-1)) (UniProt O60260); assay: co-IP; PRKN immunoprecipitated from PANC-1 cells transduced with HACD2, PKM2, PRKN or a vector control; blots for PKM2 and HACD2 (Figure 5B)
[3] = molecular target: Flag‐PKM2 expressed in HEK‐293T cells (UniProt P14618); assay: co-IP; HEK-293T cells expressing the constructs, NP-40 lysis buffer with 1% PMSF, antibody overnight at 4 °C, magnetic beads, western blotting (Figure 5A middle and bottom, Figure 5H)
[4] = molecular target: E3 ubiquitin‐protein ligase parkin (PRKN), endogenous in PANC‐1 cells (human (endogenous in PANC-1)) (UniProt O60260); assay: co-IP; anti-PRKN antibody, PANC-1 cells with rising doses of His-HACD2 (Figure 5C)

binding [1]: binds | binding [2]: binds
B1: 3‐Hydroxyacyl‐CoA dehydratase 2 (HACD2), endogenous in PANC‐1 cells (protein, UniProt Q6Y1H2 1-254)
chain: MAAVAATAAAKGNGGGGGRAGAGDASGTRKKKGPGPLATAYLVIYNVVMTAGWLVIAVGLVRAYLAKGSYHSLYYSIEKPLKFFQTGALLEILHCAIGIVPSSVVLTSFQVMSRVFLIWAVTHSVKEVQSEDSVLLFVIAWTITEIIRYSFYTFSLLNHLPYLIKWARYTLFIVLYPMGVSGELLTIYAALPFVRQAGLYSISLPNKYNFSFDYYAFLILIMISYIPIFPQLYFHMIHQRRKILSHTEEHKKFE

binding [2]: binds
B2: HACD2 overexpressed in PANC‐1 cells by transduction (protein, UniProt Q6Y1H2 1-254)
chain: MAAVAATAAAKGNGGGGGRAGAGDASGTRKKKGPGPLATAYLVIYNVVMTAGWLVIAVGLVRAYLAKGSYHSLYYSIEKPLKFFQTGALLEILHCAIGIVPSSVVLTSFQVMSRVFLIWAVTHSVKEVQSEDSVLLFVIAWTITEIIRYSFYTFSLLNHLPYLIKWARYTLFIVLYPMGVSGELLTIYAALPFVRQAGLYSISLPNKYNFSFDYYAFLILIMISYIPIFPQLYFHMIHQRRKILSHTEEHKKFE

Further lines, the binder ahead of its results:

B3: His‐HACD2 expressed in HEK‐293T cells (protein, UniProt Q6Y1H2 1-254)
chain: MAAVAATAAAKGNGGGGGRAGAGDASGTRKKKGPGPLATAYLVIYNVVMTAGWLVIAVGLVRAYLAKGSYHSLYYSIEKPLKFFQTGALLEILHCAIGIVPSSVVLTSFQVMSRVFLIWAVTHSVKEVQSEDSVLLFVIAWTITEIIRYSFYTFSLLNHLPYLIKWARYTLFIVLYPMGVSGELLTIYAALPFVRQAGLYSISLPNKYNFSFDYYAFLILIMISYIPIFPQLYFHMIHQRRKILSHTEEHKKFE
binding [3]: no binding

B4: His‐HACD2 expressed in PANC‐1 cells (protein, UniProt Q6Y1H2 1-254)
chain: MAAVAATAAAKGNGGGGGRAGAGDASGTRKKKGPGPLATAYLVIYNVVMTAGWLVIAVGLVRAYLAKGSYHSLYYSIEKPLKFFQTGALLEILHCAIGIVPSSVVLTSFQVMSRVFLIWAVTHSVKEVQSEDSVLLFVIAWTITEIIRYSFYTFSLLNHLPYLIKWARYTLFIVLYPMGVSGELLTIYAALPFVRQAGLYSISLPNKYNFSFDYYAFLILIMISYIPIFPQLYFHMIHQRRKILSHTEEHKKFE
binding [4]: binds
